These results are taken from US20230295316A1 (FRED HUTCHINSON CANCER CENTER, published 2023).

T1: Hs_CD123_6His-Avi (CD123 ECD-His-Avi fusion protein) (human, UniProt P26951 19-303)
T1 construct: The signal peptide is marked only by bold type, so its limits cannot be read here and were not guessed; also called His-Avi tagged peptide encompassing the ECD of human CD123
T1 sequence: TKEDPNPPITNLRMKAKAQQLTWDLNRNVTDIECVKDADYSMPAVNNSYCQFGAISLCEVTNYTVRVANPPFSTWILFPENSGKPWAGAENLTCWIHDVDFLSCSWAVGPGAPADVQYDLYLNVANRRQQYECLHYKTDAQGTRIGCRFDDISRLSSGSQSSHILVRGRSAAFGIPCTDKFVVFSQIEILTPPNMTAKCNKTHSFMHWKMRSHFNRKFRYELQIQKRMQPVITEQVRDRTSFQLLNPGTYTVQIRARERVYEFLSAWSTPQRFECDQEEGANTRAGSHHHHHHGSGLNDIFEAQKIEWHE

B1: HuV1-10C4, recombinant humanized 10C4, human IgG4 framework (antibody)
heavy: QVQLQESGPGLVKPSETLSLTCTVSGFSLTTYDINWIRQPPGKGLEWIGVIWTGGGTNYNSAFMSRVTISVDTSKNQFSLKLSSVTAADTAVYYCARADTYHYALDFWGQGTLVTVSSASTKGPSVFPLAPCSRSTSESTAALGCLVKDYFPEPVTVSWNSGALTSGVHTFPAVLQSSGLYSLSSVVTVPSSSLGTKTYTCNVDHKPSNTKVDKRV[human IgG4 Fc with S228P (EU numbers) not printed]
light: DIVMTQSPDSLAVSLGERATINCKSSQSLLSSGTRKNYLAWYQQKPGQPPKLLIYWASTRESGVPDRFSGSGSGTDFTLTISSLQAEDVAVYYCKQSYILFTFGQGTKLEIKRTVAAPSVFIFPPSDEQLKSGTASVVCLLNNFYPREAKVQWKVDNALQSGNSQESVTEQDSKDSTYSLSSTLTLSKADYEKHKVYACEVTHQGLSSPVTKSFNRGEC
notes: also called CD123-HuV1-10C4; HuV1-10C4_IgG4
B2: HuV2-10C4, recombinant humanized 10C4, human IgG4 framework (antibody)
heavy: B1 heavy with I34W, N35S, V50Y, S61P, A62S, F63L, M64K, A96V, A98G
light: B1 light
notes: Light chain as for the HuV2 IgG1 form (see there); Signal peptides left out as for HuV1; also called CD123-HuV2-10C4; HuV2-10C4_IgG4
B3: HuV1-10C4, recombinant humanized 10C4, human IgG1 framework (antibody)
heavy: QVQLQESGPGLVKPSETLSLTCTVSGFSLTTYDINWIRQPPGKGLEWIGVIWTGGGTNYNSAFMSRVTISVDTSKNQFSLKLSSVTAADTAVYYCARADTYHYALDFWGQGTLVTVSS[human IgG1 constant region not printed]
light: B1 light
notes: also called CD123-HuV1-10C4; HuV1-10C4_IgG1
B4: HuV2-10C4, recombinant humanized 10C4, human IgG1 framework (antibody)
heavy: B3 heavy with I34W, N35S, V50Y, S61P, A62S, F63L, M64K, A96V, A98G
light: B1 light
notes: No full light chain is headed HuV2; Signal peptides left out as for HuV1; also called CD123-HuV2-10C4; HuV2-10C4_IgG1

Residue numbers refer to the chain shown, from its start.

The first experiment has as its target T1, Hs_CD123_6His-Avi (CD123 ECD-His-Avi …). Nature of the experiment: competition ELISA: plate coated with CD123 ECD-His-Avi, biotinylated 10C4 as competitor, increasing unlabeled antibody, HRP-streptavidin; unit not given, x axis is log(concentration). The text has this:
(§1) FIGS. 15A-15B. Enzyme-linked immunosorbent assay (ELISA) with the original mouse 10C4 antibody and peptide encompassing the entire extracellular domain (ECD) of CD123 was used to test competitive binding of 10C4 compared to recombinant (FIG. 15A) human IgG1 versions and (FIG. 15B) human IgG4 versions of chimeric 10C4 and humanized 10C4 monoclonal antibodies. Plates were coated with CD123 ECD-His-Avi fusion protein and bound to biotinylated 10C4 antibody in the presence or absence of increasing amounts of competing unlabeled antibodies, as detected by HRP-Streptavidin.
In the case of B1, the “Calculated concentration at 1/2 OD” value is 1.41.
For B2, the “Calculated concentration at 1/2 OD” value was 2.21.

For another experiment the target is unchanged. Nature of the experiment: SPR (Biacore T-100), univalent affinity; antibody captured on the CM4 chip, human CD123 ECD as analyte. How it is done: FIGS. 13A-13B. Surface plasmon resonance (Biacore T-100) analyses were performed to rigorously/precisely determine univalent binding affinities of recombinant chimeric and humanized versions of the anti-human CD123 monoclonal antibody 10C4, using (FIG. 13A) human IgG1 and (FIG. 13B) human IgG4 frameworks. For these experiments, a peptide encoding the complete extracellular portion of human CD123 was used, and the antibodies were captured on the biosensor chip (CM4) via a Fc gamma-specific goat anti-human IgG and amine coupling.
Regarding B3, the Kd turned out to be 6.09 nM, the koff is 0.000556 s⁻¹ and the kon is 91200 M⁻¹ s⁻¹.
For B1, in that order: 6.53 nM, 0.000544 s⁻¹ and 83200 M⁻¹ s⁻¹.
The matching figures for B4: 242 nM, 0.0163 s⁻¹ and 67500 M⁻¹ s⁻¹.
For the molecule B2, the Kd was 225 nM, the koff worked out at 0.0204 s⁻¹ and the kon worked out at 90600 M⁻¹ s⁻¹.

The target is the same in another experiment. Nature of the experiment: competition ELISA against biotinylated 10C4 on coated CD123 ECD-His-Avi; percent relative to the 10C4 row of the drawn table.
Source text: as §1
With B1, the Immunoreactivity was determined as 135%.
The same measure, in the same setting: the same measure for B2: 212%.
